{
  "source": "PubChem BioAssay AID1347417",
  "about": "(National Center for Advancing Translational Sciences (NCATS), 2020)",
  "note": "Out of some 120,000 compounds screened, about 5,300 (4.4%) were called active. Inconclusive means that the source gave no clear call. Such entries were picked first, then a sample of the others. Calls follow the shape of the dose curve; as a rule, active = well fitted inhibition curve with a large enough effect; inconclusive = small, poorly fitted or top-dose-only effect; inactive = no such curve, though single readings can be large or run the other way. Potencies beside an inconclusive call are fits to weak or partial responses and may not hold up. Potency is read from the fitted curve at half-maximal effect; tags tell the direction and shape of the fitted curve.",
  "data": [
    {"experiment": "qHTS Primary assay for Inhibitors of Plasmodium falciparum Dd2 growth in vitro; also: nearly all actives have a fitted effect of over 65% in size;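 as to activity, negative = inhibition: plate controls were DMSO vehicle for no effect and reference drug for full effect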", "conditions": "P. falciparum Dd2 growth, SYBR Green, 72 h; activity, negative = inhibition: at 28.9 µM (top of the series) unless noted; series mostly up to 28.9 µM", "in_short": "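Infected erythrocytes (Dd2, 0.3% parasitemia, 2.5% hematocrit final) are added to compound in RPMI-1640/Albumax II medium, grown 72 h at 37C in low oxygen, then lysed with saponin/Triton-X containing SYBR Green and read by fluorescence.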", "values": [
      {"smiles": "CC(C)c1ccc(S(=O)(=O)N(C)CC2CCOCC2)cc1", "Potency": "inconclusive: 8.91 µM [inhibitor, single point]"},
      {"smiles": "CCn1cc(CN2CCN(C(=O)c3sccc3C)CC2)ccc1=O", "activity, negative = inhibition": "inactive: 14%"},
      {"smiles": "CC(C)c1ccc(CC(=O)N2CCCc3ncc(C(=O)Nc4ccccc4)cc32)cc1", "activity, negative = inhibition": "inactive: -8.19% [at 44.1 µM]"},
      {"smiles": "COCc1ccc2c(c1)c(OC(C)(C)C(=O)N1CCOCC1)nn2Cc1ccccc1", "Potency": "inconclusive: 10 µM [inhibitor, partial curve, poor fit]"},
      {"smiles": "O=[S+]1([O-])NCC2(CCCN(Cc3cccc4ccccc34)C2)Nc2ccccc21", "note": "(centres undefined)", "activity, negative = inhibition": "inactive: -5.62%"},
      {"smiles": "N#Cc1cccc(CN2CC[C@H]3C(=O)NCCCCCCN(Cc4ccncc4)[C@@H]3C2)c1", "Potency": "active: 12.6 µM"},
      {"smiles": "CCc1ccc(C(=O)N2CCC(n3cnnc3COC)CC2)cc1", "Potency": "inconclusive: 20 µM [inhibitor, single point]"},
      {"smiles": "O=C(NCCc1noc(C2CC2)n1)c1ccco1", "activity, negative = inhibition": "inactive: 31.5%"},
      {"smiles": "CCc1noc(-c2cn(C3CCN(C(=O)c4sccc4C)CC3)nn2)n1", "Potency": "inconclusive: 11.2 µM [inhibitor, single point]"},
      {"smiles": "O=C(NC1CCCC1)c1cc2cn(C3CC3)cc2s1", "Potency": "inconclusive: 15.8 µM [inhibitor, single point]"},
      {"smiles": "COc1ccc2c(c1)C(NC(=O)c1cn(CCN)nn1)CC(C)(C)O2", "note": "(centres undefined)", "Potency": "inconclusive: 10 µM [inhibitor, partial curve, poor fit]"},
      {"smiles": "CC(=O)N1Cc2ccccc2CC2(CCCCN2Cc2cccnc2)C1", "note": "(centres undefined)", "Potency": "inconclusive: 12.6 µM [inhibitor, single point]"},
      {"smiles": "COc1ccc(-c2ncc3c(n2)OCCN(c2ccccc2)C3=O)cc1F", "Potency": "inconclusive: 1.26 µM [inhibitor, full curve, poor fit]"},
      {"smiles": "O=C(NC1CC1)c1ccccc1OC1CN(Cc2cccc(F)c2F)C1", "Potency": "inconclusive: 8.91 µM [inhibitor, partial curve]"},
      {"smiles": "CCc1ccccc1N(C)C(=O)c1cn(CC(C)C)c(=O)c2cc(OC)c(OC)cc12", "Potency": "inconclusive: 17.8 µM [inhibitor, single point]"},
      {"smiles": "CN(C)c1ccc(CN2CCC3(C2)C(=O)N(C)c2ccccc23)cc1", "note": "(centres undefined)", "outcome": "inactive [at 44.1 µM]"},
      {"smiles": "COc1cccc(CCC(=O)N2CCC3(CC2)CCC(O)(CN(C)C)CC3)c1", "Potency": "inconclusive: 20 µM [inhibitor, single point]"},
      {"smiles": "COc1ccc2c(CNCC(C)c3ccccc3)c(C(=O)O)n(Cc3ccc(F)cc3Cl)c2c1", "note": "(centres undefined)", "Potency": "inconclusive: 5.01 µM [inhibitor, partial curve]"},
      {"smiles": "O=C(c1ccccn1)N1CCCn2cc(-c3ccccc3)nc21", "activity, negative = inhibition": "inactive: -23.6%"},
      {"smiles": "O=C1CS(=O)(=O)C2(C(=O)N(Cc3cccc(F)c3)c3ccccc32)N1c1ccccc1", "note": "(centres undefined)", "Potency": "inconclusive: 20 µM [inhibitor, single point]"},
      {"smiles": "Oc1ccccc1Nc1nc(-c2ccccc2)c2cc(Cl)ccc2n1", "Potency": "active: 5.01 µM"},
      {"smiles": "O=C(C1CCCN(c2nc3ncccc3o2)C1)N1CCN(c2ncccn2)CC1", "note": "(centres undefined)", "outcome": "inactive"},
      {"smiles": "COC(=O)c1ccc(Cl)cc1NC(=O)N1CC=C(c2c[nH]c3ccccc23)CC1", "Potency": "inconclusive: 3.98 µM [inhibitor, single point]"},
      {"smiles": "CCCN(CC1CCOC1)C(=O)Nc1ccccc1OC", "note": "(centres undefined)", "activity, negative = inhibition": "inactive: 46.8% [at 5.79 µM]"},
      {"smiles": "CN1Cc2ccccc2-n2ccnc2C12CCN(C(=O)c1ccccn1)CC2", "outcome": "inactive [at 5.79 µM]"},
      {"smiles": "COc1ccc(OC)c(NC2=C(c3ccccc3)C(=O)c3ccccc32)c1", "Potency": "inconclusive: 10 µM [inhibitor, single point]"},
      {"smiles": "CC1CCN(S(=O)(=O)c2ccc3c(c2)N(CC(=O)NCc2ccccc2)C(=O)CO3)CC1", "Potency": "inconclusive: 5.01 µM [inhibitor, partial curve, poor fit]"},
      {"smiles": "Cn1cc(-c2ccncc2)cc1C(=O)N1CCN(c2ccccn2)CC1", "Potency": "inconclusive: 12.6 µM [inhibitor, single point]"},
      {"smiles": "F[C@@H]1CN(C2CCC2)C[C@@H]1OCc1nc2ccccc2o1", "Potency": "inconclusive: 4.47 µM [inhibitor, full curve]"},
      {"smiles": "CCN1CCCCC12Cc1ccccc1CN(C(=O)c1c(C)noc1C)C2", "note": "(centres undefined)", "Potency": "inconclusive: 8.91 µM [inhibitor, single point]"},
      {"smiles": "O=C1NC2(CCCN(Cc3ccc(C(F)(F)F)cc3)C2)Oc2ccccc21", "note": "(centres undefined)", "Potency": "inconclusive: 8.91 µM [inhibitor, single point]"},
      {"smiles": "O=C(NC1CCCN(c2cc(-c3ccc(Cl)cc3)[nH]n2)C1)c1ccoc1", "note": "(centres undefined)", "activity, negative = inhibition": "inactive: -1.91%"},
      {"smiles": "Cc1cc(C(=O)N2CCC(N3C(=O)C(O)C34CCCCC4)CC2)nn1C", "note": "(centres undefined)", "Potency": "inconclusive: 3.98 µM [inhibitor, single point]"},
      {"smiles": "CCOc1ccccc1CN1CCC2(CCN(Cc3ccc(F)cc3)CC2)Oc2ccccc21", "Potency": "inconclusive: 3.98 µM [inhibitor, partial curve, poor fit]"},
      {"smiles": "CCc1ccc(C(=O)N2CCCC(c3nccn3Cc3ccncc3)C2)s1", "note": "(centres undefined)", "Potency": "inconclusive: 3.98 µM [inhibitor, full curve, poor fit]"},
      {"smiles": "O=C(NCCCc1nc2ccccc2n1Cc1ccccc1Cl)C1CCCCC1", "Potency": "inconclusive: 11.2 µM [inhibitor, single point]"},
      {"smiles": "CN(Cc1cccc(OC(F)(F)F)c1)C(=O)C1(c2ccc(Cl)cc2)CCOCC1", "Potency": "inconclusive: 11.2 µM [inhibitor, single point]"},
      {"smiles": "NC(=O)c1cc[nH]c1C1CCCN(C(=O)CCc2nc3ccccc3s2)C1", "note": "(centres undefined)", "Potency": "inconclusive: 0.282 µM [inhibitor, partial curve, poor fit]"},
      {"smiles": "COc1ccc(C(=O)N2CCC(n3cc(-c4nc(C(C)C)no4)nn3)CC2)cc1OC", "outcome": "inactive"},
      {"smiles": "CCN(CC)Cc1cnc2c(C(=O)NC3(c4ccccc4)CC3)cnn2c1", "activity, negative = inhibition": "inactive: -16%"},
      {"smiles": "COc1ccc(C(=O)N[C@@H]2CCC[C@@H]2C(=O)NCCCN2CCCc3ccccc32)cc1", "Potency": "active: 11.2 µM"},
      {"smiles": "Cc1ccccc1CNC(=O)c1ccc(NC(=O)c2nsc3ccccc23)cc1", "Potency": "inconclusive: 12.6 µM [inhibitor, single point]"},
      {"smiles": "CN1CC[C@H]2CN(C(=O)CCCc3ccc(F)cc3)C[C@@]2(C(=O)O)C1", "activity, negative = inhibition": "inactive: 1.02%"},
      {"smiles": "O=C(c1n[nH]c2ccccc12)N1CCC(Cc2nc(-c3ccncc3)n[nH]2)CC1", "Potency": "inconclusive: 3.16 µM [inhibitor, single point]"}
    ]}
  ]
}
